Source: PubChem BioAssay AID488969 (Vanderbilt High Throughput Screening Facility, 2010)
In all, about 110,000 compounds were measured (“z-score”: median about -0.1, highest 2% from about 2 on). Some of the results follow. Calls of active or inactive are those of the source.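 How the source made its calls: active means z-score in the third read window above 3 or below -3; inactive means the rest.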

What follows are compounds tested against Metabotropic glutamate receptor 8 (Rattus norvegicus) (UniProt P70579) (assay: rat mGluR8 modulators via GIRK flux, primary screen, cell-based, thallium flux, HTS (AID 488969)). Details: HEK293 rat mGluR8, GIRK (G protein-gated inwardly rectifying potassium channel) thallium flux, FluoZin2; at 10 µM; stronger effect = higher value; submaximal glutamate (EC20) added with thallium.
Sequence of UniProt P70579 (P70579 whole entry, looked up): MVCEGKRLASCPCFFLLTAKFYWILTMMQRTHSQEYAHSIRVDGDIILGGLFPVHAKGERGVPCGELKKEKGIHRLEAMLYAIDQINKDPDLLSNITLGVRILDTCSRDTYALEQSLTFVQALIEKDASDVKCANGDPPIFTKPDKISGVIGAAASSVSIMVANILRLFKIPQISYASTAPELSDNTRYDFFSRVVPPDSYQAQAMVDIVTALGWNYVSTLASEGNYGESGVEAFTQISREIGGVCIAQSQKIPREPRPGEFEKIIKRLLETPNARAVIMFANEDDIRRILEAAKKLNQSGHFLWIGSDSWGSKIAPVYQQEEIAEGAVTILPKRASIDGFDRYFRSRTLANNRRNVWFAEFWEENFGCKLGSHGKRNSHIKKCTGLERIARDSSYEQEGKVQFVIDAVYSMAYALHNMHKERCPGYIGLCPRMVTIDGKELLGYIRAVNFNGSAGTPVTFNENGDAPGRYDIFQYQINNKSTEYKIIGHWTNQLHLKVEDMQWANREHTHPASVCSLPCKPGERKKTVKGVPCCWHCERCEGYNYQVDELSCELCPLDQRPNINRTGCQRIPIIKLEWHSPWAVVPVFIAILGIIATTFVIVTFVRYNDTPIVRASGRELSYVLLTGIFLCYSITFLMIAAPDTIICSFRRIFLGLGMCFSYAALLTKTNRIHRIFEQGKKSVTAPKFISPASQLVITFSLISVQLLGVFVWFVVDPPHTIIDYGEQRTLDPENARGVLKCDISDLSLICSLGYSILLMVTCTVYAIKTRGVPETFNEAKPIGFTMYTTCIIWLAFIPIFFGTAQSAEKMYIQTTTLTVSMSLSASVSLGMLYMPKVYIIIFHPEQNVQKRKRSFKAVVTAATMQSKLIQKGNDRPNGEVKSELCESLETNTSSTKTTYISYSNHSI

Compound	z-score
COCCn1c(=S)[nH]c2cc(OC)c(OC)cc2c1=O	-0.0151
COc1ccc(CNC(=O)c2csc(Cc3ccc(OC)cc3)n2)cc1	-0.382
CC(C(=O)O)n1c(C(F)(F)F)nc2ccccc21 (configuration not stated)	0.219
COc1cccc(-c2cc(C(=O)N/N=C/c3ccc(OC)c(COC(C)=O)c3)c3ccccc3n2)c1	0.189
c1ccc(CCc2ccccc2-c2nc(-c3cccnc3)no2)cc1	0.0978
COc1cc(NC(=S)NCc2ccc(S(N)(=O)=O)cc2)c(OC)cc1Cl	0.196
CN(C)C(=O)c1c2c(nc3ccccc13)-c1ccccc1CC2	-0.675
O=C(Nc1cccc2c1CCCC2)c1ccncc1	0.637
CCOC(=O)N1CCN(c2c(NC3CCN(Cc4ccccc4)CC3)c(=O)c2=O)CC1	-0.572
COc1ccc(N2CCC(CNC(=S)Nc3cccc(OC)c3)C2)cc1 (configuration not stated)	-0.0452
COc1ccccc1C1C(C(C)=O)=C(O)C(=O)N1CCc1ccccc1 (configuration not stated)	-1.28
CC(C)NCCCCOc1ccccc1-c1ccccc1	0.151
O=C(Nc1ccncc1)C1CCCN(S(=O)(=O)c2cccc3cccnc23)C1 (configuration not stated)	-0.00286
C=CCn1c(SCC(=O)O)nnc1-c1cccc(Cl)c1	-0.129
O=C(CN1CCN(Cc2ccccc2)CC1)N/N=C/C=C/c1ccco1	-0.481
CCOC(=O)/C(=C/c1ccc(OC)cc1)NC(=O)c1ccco1	-0.186
CC(=O)Nc1ccc(SCC(=O)Nc2ccccc2Oc2ccccc2)cc1	-0.775
Cc1ccc(-n2c(O)c(C=NC3CCS(=O)(=O)C3)c3ccccc3c2=O)cc1 (configuration not stated)	-0.486
CCOc1cccc(-c2nnc(SCC(=O)Nc3cccc(OC)c3)n2N)c1	0.0928
CCOC(=O)Nc1cc(C(=O)OC)ccc1C	-0.0572
COc1cc(OC)cc(C(=O)NC(=S)Nc2ccc3c4c(cccc24)CC3)c1	0.967
NC(=O)c1c(NC(=O)CN2CCCC2)sc2c1CCCC2	-0.047
N/C(=N\OC(=O)Cc1cccs1)c1ccc([N+](=O)[O-])cc1	-0.185
Cc1cccc2cc(CN(Cc3cccnc3)C(=O)c3ccccc3F)c(Cl)nc12	-1.02

Compound	z-score
COC(=O)CC1C(=O)NCCN1C(=S)Nc1cc(C)cc(C)c1 (configuration not stated)	-0.0164
O=C(CN1C(=O)c2cccc3cccc1c23)Nc1ccc2c(c1)OCO2	-0.349
O=C(N/N=C/c1ccccc1Cl)c1ccc(F)cc1	-0.645
CCc1ccc(N2C(=O)CC(NNc3nc4ccccc4s3)C2=O)cc1 (configuration not stated)	0.452
O=S(=O)(NCCSc1ccc(Cl)cc1)c1ccc(F)cc1	0.0224
CCC1=NC(c2ccccc2)N(O)C1(C)C (configuration not stated)	-0.0296
Cc1cccc(NC(=O)CSc2nnc(CNC(=O)c3ccc(S(=O)(=O)N(C)C)cc3)n2-c2cccc(C)c2)c1	-0.337
O=C(CO/N=C/c1ccccc1O)NNC(=O)c1ccccc1Cl	-0.0285
CNC(=O)c1nnc(Cc2ccc(Cl)cc2)o1	1.21
O=C(NCCc1ccc(O)cc1)c1ccc(Cl)cc1	-0.151
CC(C)OC(=O)CSc1nnc(-c2cnccn2)n1-c1ccccc1	-0.352
Cc1ccc(C(=O)Oc2ccccc2N2C(=O)C3CCC(C)CC3C2=O)cc1 (configuration not stated)	-0.265
Cc1cccc(NC(=O)COc2ccc(Br)cc2/C=N/O)c1	1.86
CC1CCN(C(=O)CSc2nc3c(cnn3-c3ccccc3)c(=O)[nH]2)CC1	-0.345
Cc1occc1C(=O)NN1C(=O)C2C3CCC(O3)C2C1=O (configuration not stated)	0.0433
CC(C)COC(=O)C(C#N)c1nc2ccccc2nc1N1CCN(Cc2ccccc2)CC1 (configuration not stated)	-0.213
CC(C)n1c(N2CCN(C(=O)c3cccs3)CC2)nc2ccccc21	-0.352
Cc1cc(C)n2nc(C(=O)Nc3ccc4c(c3)OCO4)cc2n1	-0.0466
CCOC(=O)c1oc2cccc(OC(C)=O)c2c1C	-0.447
CCOc1ccc(-n2c(N)c(C(=O)NCc3ccco3)sc2=S)cc1	0.944
CCCCCCn1c(CN2CCCCC2)nc2c1c(=O)n(C)c(=O)n2C	-0.478
Clc1ccc2[nH]c3c(NCC4CCCO4)ncnc3c2c1 (configuration not stated)	active: -3.05
CCOC(=O)C1=C(c2ccccc2)N2CCN=C2S1	0.217
CC(C)c1ccc(C2NC(=S)NC3=C2C(=O)CC(C)(C)C3)cc1 (configuration not stated)	-0.0107

Compound	z-score
COc1ccc(F)c(C2C(C#N)=C(N)Oc3n[nH]c(C(C)(C)C)c32)c1 (configuration not stated)	-0.303
COc1ccc(OC)c(NC(=O)C2CCCCC2C(=O)O)c1 (configuration not stated)	0.311
COn1c(SCC(N)=O)nc2ccccc2c1=O	0.473
COc1cc(C2C(C(N)=O)=C(C)Nc3nc(CCCO)nn32)cc(OC)c1OC (configuration not stated)	0.279
CS(=O)(=O)N1CCN(c2ccccc2NC(=O)c2cccnc2Cl)CC1	-0.117
Cc1nnc(SCCN2CCOCC2)c2nn(-c3ccccc3F)c(C)c12	-0.0917
CN(C)C(=O)c1cc(F)ccc1Sc1cc(Cl)ccc1Cl	-0.409
CCOc1ccc(NC(=O)c2ccc(C#CC(C)(C)O)cc2)cc1	0.116
CCOc1ccc2[nH]cc(C(=O)O)c(=O)c2c1	0.172
O=C(CCCSc1nc(-c2ccco2)cc(C(F)(F)F)n1)NCC1CCCO1 (configuration not stated)	-0.496
CC(=O)N1CCC(N(CCN2CCOCC2)C(=S)Nc2ccccc2C)CC1	-0.103
N#Cc1c(SCc2nc3ccccc3[nH]2)nc2c(c1C(F)(F)F)CCC2	-1.13
COc1ccc2nc(SCC(=O)NC3CCCc4ccccc43)[nH]c2c1 (configuration not stated)	0.0427
C=CCn1c(N)c(C(=O)OC(C)CC)c2nc3ccccc3nc21 (configuration not stated)	-0.622
Cc1noc(C)c1COc1ccc(C(=O)OCC(=O)Nc2ccc3c(c2)OCO3)cc1	0.261
O=C(N/N=C\c1ccc(Sc2ccccn2)o1)c1cccc(Br)c1	1.77
CCSc1nc2c(sc3nc(C)cc(C)c32)c(=O)[nH]1	-1.43
Cc1ccc(C(=O)N/C(=C\c2ccccc2)C(=O)OCc2ccccc2)cc1	-0.52
COc1cccc(-c2nnc(SCc3nc4ccccc4[nH]3)n2N)c1	-0.28
CCOC(=O)c1c(NC(C)=O)sc2c1CCCNC2=O	-1.01
CSc1nc(-c2ccccc2)nn1S(=O)(=O)c1ccccc1	-0.16
O=C(COc1ccccc1Cl)NC(=S)Nc1cccc(NC(=O)c2ccccc2Cl)c1	0.0174
COc1ccc(-c2nc3ccncc3[nH]2)cc1OC	-0.103
Cc1ccccc1C(=O)Nc1c2c(nc3ccccc13)CCCC2	-0.429
